The shares of active, inactive and inconclusive entries below differ from those in the screen. For part of these data: A potency beside an inconclusive call is a rough fit, not a confirmed value. Activity calls are given as the source filed them. Unless noted, calls follow the shape of the dose curve; as a rule, active = well fitted curve in the direction sought with a large enough effect in the repeat runs; inconclusive = weak or mixed curves; inactive = no such curve, though single readings can be large; an effect the other way counts as inactive or inconclusive.
Legend:
[1] = qHTS assay to identify small molecule agonists of the estrogen related receptor (ERR) signaling pathway from Tox21 library (AID 1224849; calls by dose curve; also: % is scaled to controls: 0 for no effect and ±100 for the full control effect; nearly all actives have a fitted effect of over 15% in size); conditions: ERR reporter cell line, ONE-Glo luciferase, 18 h; at 42.5 µM (top of the series)
How it was run: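 Tox21 compounds tested for ERR agonism in an NTP reporter cell line: 18 h treatment at 37 C, then ONE-Glo luminescence.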

[2] = qHTS RealTime-Glo MT Cell Viability Assay in HepG2 cells - 24 hour (AID 1224867); conditions: RealTime-Glo luminescence; series mostly up to 76.8 µM; also: nearly all actives have a fitted effect of over 50% in size; also: potency is read from the fitted curve at half-maximal effect
How it was run: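 Real-time, nonlytic viability: 600 HepG2 cells/well mixed with NanoLuc enzyme plus prosubstrate; 5 h settle, compound (DMSO) added by pintool; luminescence monitored over 40 h at 37 C.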

[3] = qHTS assay to identify small molecule antagonists of the estrogen related receptor (ERR) signaling pathway from Tox21 library - cell viability counter screen (AID 1224834); conditions: ERR reporter cells viability, CellTiter-Fluor, 17.5 h; series mostly up to 92.4 µM; also: nearly all actives have a fitted effect of over 30% in size; also: potency is read from the fitted curve at half-maximal effect
How it was run: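 Seeded ERR cells were rested 6 h at 37 C/5% CO2 before compounds, positive and negative controls or DMSO were added. Incubation continued for 17.5 h, and viability was then quantified by CellTiter-Fluor fluorescence.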

[4] = qHTS RealTime-Glo MT Cell Viability Assay in HEK293 cells - 32 hour (AID 1224868); conditions: RealTime-Glo luminescence; series mostly up to 76.8 µM; also: nearly all actives have a fitted effect of over 50% in size; also: potency is read from the fitted curve at half-maximal effect
How it was run: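 Cells + reagent dispensed (600 cells/well, HEK293) → 5 h at 37 C/5% CO2 → 23 nL compound in DMSO pinned → 40 h at 37 C → luminescence read at 0, 8, 16, 24, 32, 40 h.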

[5] = biological target: Luciferin 4-monooxygenase (Photinus pyralis) (UniProt P08659); test: qHTS assay to identify small molecule inhibitors of firefly luciferase (AID 1224835); also: nearly all actives have a fitted effect of over 25% in size; also: potency is read from the fitted curve at half-maximal effect; conditions: purified P. pyralis luciferase, luminescence inhibition; series mostly up to 115 µM
UniProt P08659, sequence (P08659 whole entry, looked up): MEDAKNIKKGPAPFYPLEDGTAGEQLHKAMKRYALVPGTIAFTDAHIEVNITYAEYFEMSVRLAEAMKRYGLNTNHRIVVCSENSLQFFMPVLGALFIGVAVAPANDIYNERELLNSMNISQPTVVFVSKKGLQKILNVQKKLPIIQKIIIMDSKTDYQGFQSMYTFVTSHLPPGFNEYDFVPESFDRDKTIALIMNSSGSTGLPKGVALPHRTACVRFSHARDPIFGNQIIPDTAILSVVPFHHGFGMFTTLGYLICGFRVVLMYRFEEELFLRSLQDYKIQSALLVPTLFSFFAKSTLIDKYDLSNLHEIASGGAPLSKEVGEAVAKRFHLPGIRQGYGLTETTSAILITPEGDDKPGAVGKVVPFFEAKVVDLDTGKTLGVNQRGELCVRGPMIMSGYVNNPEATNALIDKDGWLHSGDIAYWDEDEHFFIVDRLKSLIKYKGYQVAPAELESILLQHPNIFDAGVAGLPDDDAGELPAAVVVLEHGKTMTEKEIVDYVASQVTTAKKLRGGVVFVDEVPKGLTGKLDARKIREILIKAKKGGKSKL
How it was run: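 Inhibition of purified Photinus luciferase is measured by luminescence. Substrate levels (D-luciferin, ATP) sit at their KM values. Each compound is tested in a concentration series.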

[6] = biological target: Nuclear receptor subfamily 1 group I member 3 (Homo sapiens) (UniProt Q14994); test: qHTS assay to identify small molecule antagonists of the constitutive androstane receptor (CAR) signaling pathway (AID 1224838); conditions: HepG2-CYP2B6-hCAR luciferase, CITCO-stimulated, 24 h; series mostly up to 92.4 µM;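 also: HepG2 cells stably expressing hCAR with CYP2B6 luciferase reporter stimulated by CITCO; nearly all actives have a fitted effect of over 40% in size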; also: potency is read from the fitted curve at half-maximal effect
UniProt Q14994, sequence (Q14994 whole entry, looked up): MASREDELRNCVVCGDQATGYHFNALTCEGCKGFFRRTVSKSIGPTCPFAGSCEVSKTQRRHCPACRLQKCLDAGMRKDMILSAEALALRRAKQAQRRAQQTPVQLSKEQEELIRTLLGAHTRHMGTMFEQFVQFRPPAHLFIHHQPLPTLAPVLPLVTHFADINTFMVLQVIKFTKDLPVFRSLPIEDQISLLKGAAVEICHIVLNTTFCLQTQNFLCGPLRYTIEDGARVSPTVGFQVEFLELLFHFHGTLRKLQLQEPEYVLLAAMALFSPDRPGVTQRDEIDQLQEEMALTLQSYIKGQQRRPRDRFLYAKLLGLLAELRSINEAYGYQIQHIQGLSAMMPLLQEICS
How it was run: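 Human hepatoma HepG2 cells expressing hCAR and a CYP2B6 promoter (2.2 kb) luciferase construct; compound titration (15 points) with 50 nM CITCO final, 24 h at 37 C/5% CO2; luminescence via ONE-Glo after 30 min at room temperature.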

[7] = biological target: Nuclear receptor subfamily 1 group I member 3 (Homo sapiens) (UniProt Q14994); test: qHTS assay to identify small molecule agonists of the constitutive androstane receptor (CAR) signaling pathway (AID 1224839); conditions: HepG2 hCAR CYP2B6-luciferase, agonist mode, 24 h; series mostly up to 92.4 µM; also: potency is read from the fitted curve at half-maximal effect; nearly all actives have a fitted effect of over 15% in size
How it was run: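 Stable hCAR/CYP2B6-2.2kb HepG2 line in DMEM with 10% FBS; compounds (15 concentrations) and 0.75 uM PK11195 final, 24 h at 37 C/5% CO2, then ONE-Glo luminescence after 30 min.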

[8] = qHTS assay to identify small molecule agonists of H2AX (AID 1224845; active = well fitted activation curve with a large enough effect in the signal ratio in the repeat runs, not every such curve was filed as active; inconclusive = weak or mixed curves; the % refers to the signal ratio; also: potency is read from the fitted curve at half-maximal effect; as to activation (H2AX phosphorylation): % is scaled to controls: 0 for no effect and ±100 for the full control effect); conditions: CHO-K1 phospho-H2AX Ser139 HTRF, 3 h; activation (H2AX phosphorylation): at 154 µM (top of the series) unless noted
How it was run: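 Phospho-H2AX Ser139 measured by HTRF (ex 320 nm; em 665 and 620 nm) after 24 hr antibody incubation. Compounds, 15 concentrations, 0.76% DMSO, were applied to CHO-K1 cells for 3hr at 37C before lysis.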

[9] = qHTS assay to identify small molecule agonists of the constitutive androstane receptor (CAR) signaling pathway - cell viability counter screen (AID 1224836); conditions: HepG2-CYP2B6-hCAR viability, CellTiter-Fluor, 23 h, PK11195 added to every well; series mostly up to 92.4 µM; also: potency is read from the fitted curve at half-maximal effect; nearly all actives have a fitted effect of over 45% in size
How it was run: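 Fluorescence from CellTiter-Fluor indicates live cells after 23 h exposure. The human hepatoma line expresses hCAR and a CYP2B6-2.2kb reporter. Incubation medium contains 0.75 uM PK11195 (final).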

[10] = biological target: Thyrotropin receptor (Homo sapiens) (UniProt P16473); test: qHTS assay to identify small molecule agonists of the thyroid stimulating hormone receptor (TSHR) signaling pathway (AID 1224843; calls by dose curve; also: potency is read from the fitted curve at half-maximal effect; nearly all actives have a fitted effect of over 45% in size); conditions: TSHR-HEK293 cells, cAMP HTRF, agonist mode, 30 min; activation: at 92.4 µM (top of the series) unless noted
UniProt P16473, sequence (P16473 whole entry, looked up): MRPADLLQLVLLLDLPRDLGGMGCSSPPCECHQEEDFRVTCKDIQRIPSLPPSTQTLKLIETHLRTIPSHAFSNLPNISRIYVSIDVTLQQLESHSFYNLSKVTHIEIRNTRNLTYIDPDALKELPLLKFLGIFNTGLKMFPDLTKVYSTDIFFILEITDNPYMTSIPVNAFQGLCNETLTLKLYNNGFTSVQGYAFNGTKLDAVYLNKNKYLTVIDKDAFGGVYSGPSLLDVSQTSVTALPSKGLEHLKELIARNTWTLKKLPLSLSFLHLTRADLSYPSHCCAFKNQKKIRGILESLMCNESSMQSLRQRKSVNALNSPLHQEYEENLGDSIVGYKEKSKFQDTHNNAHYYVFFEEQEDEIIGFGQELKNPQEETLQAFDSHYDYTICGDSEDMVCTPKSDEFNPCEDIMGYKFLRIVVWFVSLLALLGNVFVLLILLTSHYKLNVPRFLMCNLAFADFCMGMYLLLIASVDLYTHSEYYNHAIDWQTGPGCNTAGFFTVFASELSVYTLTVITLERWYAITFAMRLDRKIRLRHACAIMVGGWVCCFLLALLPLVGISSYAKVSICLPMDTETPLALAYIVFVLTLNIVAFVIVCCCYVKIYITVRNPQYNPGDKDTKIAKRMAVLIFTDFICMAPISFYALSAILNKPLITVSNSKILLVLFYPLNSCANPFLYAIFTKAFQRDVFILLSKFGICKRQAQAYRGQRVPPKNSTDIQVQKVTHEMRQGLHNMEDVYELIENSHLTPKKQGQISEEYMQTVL
How it was run: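 A cell-based cAMP HTRF format was run in TSHR-transfected HEK293 cells, 800 per well. Treatment: 30 min, room temperature. Detection: 1 h with labelled cAMP and anti-cAMP cryptate. Concentration-response over 15 points, three replicates.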

[11] = qHTS assay to identify small molecule agonists of H2AX - cell viability counter screen (AID 1224847; calls by dose curve; also: top concentration of the series differs between compounds; % is scaled to controls: 0 for no effect and ±100 for the full control effect; nearly all actives have a fitted effect of over 30% in size); conditions: CHO-K1 viability, CellTiter-Glo luminescence, 3 h; series mostly up to 154 µM
How it was run: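 Viability of CHO-K1 (wild type) cells after 3 hr compound exposure was measured by CellTiter-Glo luminescence.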

[12] = qHTS assay to identify small molecule antagonists of the estrogen related receptor (ERR) signaling pathway from Tox21 library (AID 1224848); conditions: ERR reporter cell line, luciferase antagonist mode, 18 h; series mostly up to 92.4 µM; also: potency is read from the fitted curve at half-maximal effect; nearly all actives have a fitted effect of over 50% in size
How it was run: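 ERR cell line, 2,000 cells/well. 6 h settle, then compound (DMSO) added; 18 h at 37 C; ONE-Glo luminescence after 30 min RT.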

[13] = qHTS assay to identify small molecule antagonists of the constitutive androstane receptor (CAR) signaling pathway - cell viability counter screen (AID 1224837); conditions: HepG2-CYP2B6-hCAR viability, CellTiter-Fluor, 23 h, co-treated with 50 nM CITCO; series mostly up to 92.4 µM; also: % is scaled to controls: 0 for no effect and ±100 for the full control effect; nearly all actives have a fitted effect of over 45% in size
How it was run: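 To flag cytotoxic false antagonists, HepG2 hCAR/CYP2B6-2.2kb cells were treated 23 hr with 15-concentration compound series and 50 nM CITCO at 37 C/5% CO2; CellTiter-Fluor fluorescence was the measured end point.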
Tags tell the direction and shape of the fitted curve or compound fluorescence and quenching.

In the case of `C[N+](C)(CCOc1ccccc1)Cc1cccs1`, the activity change, positive = activation [1] is reported as inconclusive: 2.63%.

With `CC(C)(C)[C@@H](O)[C@@H](Cc1ccc(Cl)cc1)n1cncn1` the Potency [2] was “inactive”.

For `O=C(CCCN1CCC(O)(c2ccc(Br)cc2)CC1)c1ccc(F)cc1`, the Potency [3] was inconclusive: 33.5 µM [cytotoxic, single point] and the Potency [2] was inconclusive: 23.9 µM [falling, partial curve, poor fit].

In the case of `C=CC(O)CCCCC` (stereo not given), the Potency [3] is reported as “inactive” and the Potency [4] is reported as “inactive”.

For `c1ccc2c(c1)ccc1c3ccccc3ccc21`, the Potency [5] was inconclusive: 1.29 µM [inhibitor, full curve], the Potency [6] was “inactive” and the Potency [7] was inconclusive: 27.9 µM [activator, partial curve]. The Potency [8] was inconclusive: 57.8 µM [fluorescent, single point] and the Potency [4] was “inactive”.

For `Cc1ccc2ccc(Cl)cc2n1`, the Potency [5] was inconclusive: 19.5 µM [inhibitor, partial curve] and the Potency [6] was inconclusive: 2.98 µM [inhibitor, single point].

For `CN(C(=O)CCCOc1ccc2[nH]c(=O)ccc2c1)C1CCCCC1`, the Potency [5] was “inactive”, the Potency [9] was inconclusive: 13.3 µM [rising, single point] and the Potency [7] was inconclusive: 13.3 µM [activator, single point]. For the same compound, the Potency [10] was active: 0.335 µM, the Potency [8] was “inactive” and the Potency [11] was “inactive”. The Potency [12] was inconclusive: 29.8 µM [inhibitor, partial curve] and the Potency [4] was inconclusive: 16.9 µM [cytotoxic, partial curve].

In the case of `Nc1ccc(C(=O)Oc2ccccc2)c(O)c1`, the Potency [5] is reported as active: 13.8 µM, the Potency [13] is reported as “inactive” and the Potency [7] is reported as inconclusive: 26.6 µM [activator, partial curve].

In the case of `NS(=O)(=O)c1cc2c(cc1Cl)CN(C1CCCCC1)C2=O`, the Potency [5] is reported as “inactive”.

With `Cc1ccccc1C(=O)Nc1ccc(C(=O)N2CCCC(N(C)C)c3ccccc32)cc1` (stereo not given) the Potency [3] was inconclusive: 3.76 µM [cytotoxic, full curve] and the Potency [4] was inconclusive: 1.9 µM [cytotoxic, full curve].

With `CN(C)CCCOc1nn(Cc2ccccc2)c2ccccc12` the Potency [3] was inconclusive: 33.5 µM [cytotoxic, single point], the Potency [2] was “inactive” and the Potency [4] was inconclusive: 19 µM [cytotoxic, partial curve].
